The source of these data is patent US20230272116A1, “ANTIBODIES WHICH BIND TO CANCER CELLS AND TARGET RADIONUCLIDES TO SAID CELLS” (Hoffmann-La Roche Inc., priority 2020, published 2023).

The nature of the data set: Expression analysis (protein yield) of N-terminal fusion format split antibodies (Example 10). As to conditions: HEK cell expression; for Yield after Prot A: after Protein A affinity step; for Final Yield: after final purification. The source says:
In a first set, the VH and VL domain of the humanized DOTAM binder contained an N-terminal Q for the VH domain and an N-terminal A for the VL domain. In the second set, they contained an N-terminal G and S, respectively. It was observed that in this format, the antibody containing the VH domain of the humanized DOTAM binder was not successfully expressed with an N-terminal G but was successfully expressed with an N-terminal Q. G is not a typical residue at this position in a VH domain. An antibody containing the VL domain was successfully expressed with either an N-terminal S or A residue, both of which are typical residues at this position in a VL domain.

B1: P1AF7782: <CEA> CH1A1A N-terminal fusion split antibody with Dotam-VL; SEQ ID NO: 112, 113, light chain 115 (antibody)
heavy 1: QVQLVQSGAEVKKPGASVKVSCKASGYTFTEFGMNWVRQAPGQGLEWMGWINTKTGEATYVEEFKGRVTFTTDTSTSTAYMELRSLRSDDTAVYYCARWDFAYYVEAMDYWGQGTTVTVSSASTKGPSVFPLAPSSKSTSGGTAALGCLVKDYFPEPVTVSWNSGALTSGVHTFPAVLQSSGLYSLSSVVTVPSSSLGTQTYICNVNHKPSNTKVDKKV[human IgG1 Fc with changes skipped]
heavy 2: SIQMTQSPSSLSASVGDRVTITCQSSHSVYSDNDLAWYQQKPGKAPKLLIYQASKLASGVPSRFSGSGSGTDFTLTISSLQPEDFATYYCLGGYDDESDTYGFGGGTKVEIKGGGGSGGGGSGGGGSGGSGGDKTHTCPPCPAPEAAGGPSVFLFPPKPKDTLMISRTPEVTCVVVDVSHEDPEVKFNWYVDGVEVHNAKTKPREEQYNSTYRVVSVLTVLHQDWLNGKEYKCKVSNKALGAPIEKTISKAKGQPREPQVCTLPPSRDELTKNQVSLSCAVKGFYPSDIAVEWESNGQPENNYKTTPPVLDSDGSFFLVSKLTVDKSRWQQGNVFSCSVMHEALHNHYTQKSLSLSPGK
light: DIQMTQSPSSLSASVGDRVTITCKASAAVGTYVAWYQQKPGKAPKLLIYSASYRKRGVPSRFSGSGSGTDFTLTISSLQPEDFATYYCHQYYTYPLFTFGQGTKLEIKRTVAAPSVFIFPPSDEQLKSGTASVVCLLNNFYPREAKVQWKVDNALQSGNSQESVTEQDSKDSTYSLSSTLTLSKADYEKHKVYACEVTHQGLSSPVTKSFNRGEC
Turning to B1, the “Yield after Prot A” value came out at 382 mg/L and the “Final Yield” value turned out to be 67.7 mg/L.

B2: P1AF7784: <CEA> CH1A1A N-terminal fusion split antibody with Dotam-VH; SEQ ID NO: 112, 114, light chain 115 (antibody)
heavy 1: QVQLVQSGAEVKKPGASVKVSCKASGYTFTEFGMNWVRQAPGQGLEWMGWINTKTGEATYVEEFKGRVTFTTDTSTSTAYMELRSLRSDDTAVYYCARWDFAYYVEAMDYWGQGTTVTVSSASTKGPSVFPLAPSSKSTSGGTAALGCLVKDYFPEPVTVSWNSGALTSGVHTFPAVLQSSGLYSLSSVVTVPSSSLGTQTYICNVNHKPSNTKVDKKV[human IgG1 Fc with changes skipped]
heavy 2: GVTLKESGPVLVKPTETLTLTCTVSGFSLSTYSMSWIRQPPGKALEWLGFIGSRGDTYYASWAKGRLTISKDTSKSQVVLTMTNMDPVDTATYYCARERDPYGGGAYPPHLWGRGTLVTVSSGGGGSGGGGSGGGGSGGSGGDKTHTCPPCPAPEAAGGPSVFLFPPKPKDTLMISRTPEVTCVVVDVSHEDPEVKFNWYVDGVEVHNAKTKPREEQYNSTYRVVSVLTVLHQDWLNGKEYKCKVSNKALGAPIEKTISKAKGQPREPQVCTLPPSRDELTKNQVSLSCAVKGFYPSDIAVEWESNGQPENNYKTTPPVLDSDGSFFLVSKLTVDKSRWQQGNVFSCSVMHEALHNHYTQKSLSLSPGK
light: DIQMTQSPSSLSASVGDRVTITCKASAAVGTYVAWYQQKPGKAPKLLIYSASYRKRGVPSRFSGSGSGTDFTLTISSLQPEDFATYYCHQYYTYPLFTFGQGTKLEIKRTVAAPSVFIFPPSDEQLKSGTASVVCLLNNFYPREAKVQWKVDNALQSGNSQESVTEQDSKDSTYSLSSTLTLSKADYEKHKVYACEVTHQGLSSPVTKSFNRGEC
In the case of B2, the “Yield after Prot A” value was 2.0 mg/L and the “Final Yield” value was 0 mg/L.
